Data: PMC4336329 (PLoS ONE, 2015)
About 14,000 (4.5%) of roughly 310,000 compounds showed an effect of 50% or more. Effects have a minus sign here. This is one part of the list.

target: human ether-à-go-go-related gene (hERG) potassium channel (human, UniProt Q12809); assay: primary screen, population patch clamp on CHO cells stably expressing hERG
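Further: peak tail current of the secondary pulse compared with the same well before compound.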

Chain of human ether-à-go-go-related gene (hERG) potassium channel (Q12809 whole entry, looked up): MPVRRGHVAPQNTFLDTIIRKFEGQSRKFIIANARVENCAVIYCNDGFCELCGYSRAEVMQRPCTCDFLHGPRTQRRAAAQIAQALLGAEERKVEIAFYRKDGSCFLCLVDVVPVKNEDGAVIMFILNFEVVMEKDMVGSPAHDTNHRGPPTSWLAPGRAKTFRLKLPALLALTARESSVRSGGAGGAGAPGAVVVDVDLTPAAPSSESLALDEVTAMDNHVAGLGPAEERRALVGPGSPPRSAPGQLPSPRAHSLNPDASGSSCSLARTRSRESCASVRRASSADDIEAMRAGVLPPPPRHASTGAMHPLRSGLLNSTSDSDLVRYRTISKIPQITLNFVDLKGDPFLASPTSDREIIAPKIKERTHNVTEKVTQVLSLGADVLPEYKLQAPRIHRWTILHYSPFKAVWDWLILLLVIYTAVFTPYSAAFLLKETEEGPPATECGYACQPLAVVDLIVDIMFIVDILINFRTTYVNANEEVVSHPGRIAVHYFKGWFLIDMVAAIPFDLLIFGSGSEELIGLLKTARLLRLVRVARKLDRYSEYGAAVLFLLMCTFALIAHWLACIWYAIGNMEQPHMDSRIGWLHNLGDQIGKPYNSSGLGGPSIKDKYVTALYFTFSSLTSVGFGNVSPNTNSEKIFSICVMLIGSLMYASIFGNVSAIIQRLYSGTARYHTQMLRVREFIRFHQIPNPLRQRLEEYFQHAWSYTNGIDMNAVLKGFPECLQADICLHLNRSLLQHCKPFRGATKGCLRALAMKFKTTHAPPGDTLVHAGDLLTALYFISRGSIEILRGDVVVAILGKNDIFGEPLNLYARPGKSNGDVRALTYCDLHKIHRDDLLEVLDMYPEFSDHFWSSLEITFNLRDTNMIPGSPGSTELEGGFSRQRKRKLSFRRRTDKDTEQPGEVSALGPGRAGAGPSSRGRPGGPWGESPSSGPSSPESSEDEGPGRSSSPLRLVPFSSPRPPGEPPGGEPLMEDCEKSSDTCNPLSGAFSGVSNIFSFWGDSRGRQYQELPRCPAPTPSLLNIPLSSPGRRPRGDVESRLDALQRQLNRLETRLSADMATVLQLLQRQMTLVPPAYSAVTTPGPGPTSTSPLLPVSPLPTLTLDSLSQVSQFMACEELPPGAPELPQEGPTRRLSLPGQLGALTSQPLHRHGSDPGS

| SMILES | hERG current change (%, negative = inhibition) at 10uM |
| --- | --- |
| Cc1ccc(NC(=O)CCC(=O)N2CCC(C)CC2)c([N+](=O)[O-])c1 | -18.3% |
| CN(C)S(=O)(=O)c1cccc(NC(=O)COC(=O)/C=C/c2ccc3c(c2)OCO3)c1 | 16.2% |
| COc1ccc(OCC(=O)Nc2ccc(N3CCOCC3)cc2)cc1 | -5.35% |
| Cc1ccc2c(CC(=O)NC3CCCc4ccccc43)coc2c1 (centres unmarked) | 10.7% |
| CCOc1ccc(/C=N/n2c(C)nc3ccccc3c2=O)cc1 | 22.3% |
| Cc1cc(O)c(C(C)C)cc1NC(=O)c1cccc(Cl)c1 | -13.4% |
| Cc1cc(C(=O)Nn2cnc3ccccc3c2=O)ccc1[N+](=O)[O-] | 22.9% |
| O=C(CCN1CCCCO1)N1CCCC(Nc2ccc(F)cc2)C1 (centres unmarked) | 12.7% |
| COC(=O)C(C)(C)ONC(=O)Nc1ccc(Br)cc1 | 11.9% |
| N=C1C(c2nc3ccccc3[nH]2)=C(O)CN1c1ccccc1 | 7.61% |
| O=C(Nc1ccc(F)cc1)c1ccc(=O)[nH]n1 | 19.8% |
| CCN1CCCC1CN(Cc1cc2c(C)cc(C)cc2[nH]c1=O)C(=O)NC1CCCCC1 (centres unmarked) | -76% |
| Fc1ccc(CNc2ncnc3c2cnn3-c2ccccc2)cc1 | -28.8% |
| CCN(CC)CCCN(Cc1cc2cc3c(cc2[nH]c1=O)OCO3)C(=S)Nc1ccccc1OC | -10.5% |
| Cc1ccc(C2CC(=O)Nc3c2ccc2ccccc32)cc1[N+](=O)[O-] (centres unmarked) | 6.65% |
| Cc1ccc(NC(=O)/C(=C/c2cccs2)NC(=O)c2ccco2)cc1 | 6.71% |
| Cn1c(=O)c2c(ncn2CC(O)CNc2ccc(Cl)cc2)n(C)c1=O (centres unmarked) | -15.9% |
| CC1CCc2onc(C(=O)O)c2C1 (centres unmarked) | 16.4% |
| COc1c(N2CCN(C(=S)Nc3ccc(F)cc3)C(C)C2)c(F)cc2c(=O)c(C(=O)O)cn(C3CC3)c12 (centres unmarked) | -3.93% |

| SMILES | hERG current change (%, negative = inhibition) at 10uM |
| --- | --- |
| CN1CCN(C(=O)c2ccc3c(c2)NC(=O)C(N2CCOCC2)S3)CC1 (centres unmarked) | 3.85% |
| Cc1onc(-c2ccccc2Cl)c1C(=O)NCc1cccnc1 | 8.17% |
| Clc1ccc(-c2nc(NCCCN3CCOCC3)c3ccccc3n2)cc1 | -18.9% |
| Cc1cc(NC(=O)c2c(-c3c(F)cccc3Cl)noc2C)no1 | -8.5% |
| O=C(Nc1ccc2c(c1)CCC2)c1cc(S(=O)(=O)Nc2ccc(F)cc2)c(Cl)cc1Cl | 1.9% |
| O=C1CSC(=Nc2ccc(Cl)cc2)N1Cc1ccco1 | -9.14% |
| COc1ccc(NC(=O)COC(=O)c2cc([N+](=O)[O-])ccc2N2CCOCC2)cc1 | -29.3% |
| Cc1ccc(NC(=O)c2cc(C)n(-c3ccccc3)c2C)cc1 | -9.93% |
| CC12CC(NC(=O)N1c1cccc(C(=O)N3CCCCC3)c1)c1ccccc1O2 (centres unmarked) | 15.2% |
| CC1(C)CC2CC(C)(CN2S(=O)(=O)c2ccc(C(=O)Nc3ccc(Cl)c(S(=O)(=O)N4CCOCC4)c3)cc2)C1 (centres unmarked) | -6.26% |
| Cc1ccc(-c2nn3c(C)nnc3s2)cc1NC(=O)c1ccco1 | -11.7% |
| COc1ccc(S(=O)(=O)N(CC(N)=O)C2CCCCC2)cc1Cl | 4.39% |
| Cc1cc(C)c(C)c(S(=O)(=O)NCc2ccc(C(=O)N3CCCCC3)cc2)c1C | -1.77% |
| CN(c1nc2ccccc2n2c(-c3ccco3)nnc12)S(=O)(=O)c1ccccc1 | -10.8% |
| N/C(=N\OC(=O)CCc1ccccc1)c1cccc(Br)c1 | 1.33% |
| Cn1c(=O)oc2cc(S(=O)(=O)NCCC(=O)N3CCc4ccccc43)ccc21 | 1.24% |
| CCCCNS(=O)(=O)c1ccc2nc(-c3cccnc3)cc(C(=O)NCCCOC)c2c1 | -0.263% |
| CC1CN(C2CCCCC2)c2nc3c(c(=O)[nH]c(=O)n3C)n2C1 (centres unmarked) | -4.42% |
| CNC(=S)NNC(=O)CCn1nc(C)c(Br)c1C | 15.8% |

| SMILES | hERG current change (%, negative = inhibition) at 10uM |
| --- | --- |
| O=C(Nc1cccnc1)c1ccc(-c2ccccc2)cc1 | 2.38% |
| COc1ccc(CN(Cc2cccnc2)S(=O)(=O)c2ccc(-n3cnnn3)c(OC)c2)cc1 | -46.7% |
| O=C(NCc1ccco1)C1(c2ccccc2)CCCC1 | 12% |
| Cc1ccc(N(C)S(=O)(=O)c2cccc(C(=O)OCC(=O)N3CCCC(C)C3)c2)cc1 (centres unmarked) | -36.8% |
| CCOC(=O)c1cnc2ccc(C)cc2c1NCCN1CCOCC1.Cl | -65.7% |
| O=C(Nc1cccc(OCC(=O)N2CCOCC2)c1)c1ccc(C(F)(F)F)cc1 | -7.91% |
| CCOC(=O)c1cc2sc(C)cc2n1CCCN1C(=O)c2ccccc2C1=O | 6.09% |
| CC1C/C(=C/c2cccn2C)C(=O)/C(=C/c2cccn2C)C1 (centres unmarked) | 9.5% |
| CCC1CN(C(=O)NCc2ccccc2)c2cc(C)ccc2O1 (centres unmarked) | 1.95% |
| O=C(NCCc1ccc2c(c1)OCCO2)c1ccc([N+](=O)[O-])cc1Cl | -7.02% |
| CCc1sc(C(=O)Nc2ccc3c(c2)OCCO3)cc1Br | 15.2% |
| COc1ccc(CCNC(=O)c2cccs2)cc1 | 10.9% |
| COc1ccc(OCc2cc(C(=O)NCC(C)Oc3cccnc3)no2)c(Cl)c1 (centres unmarked) | -52.6% |
| O=C(COC(=O)CCS(=O)(=O)c1ccc(Cl)cc1)Nc1ncc(Cl)cc1Cl | -17.6% |
| Cc1ccccc1NC(=O)CN1CCC(NC(=O)Nc2ccccc2)CC1 | -35.9% |
| CC(=O)Nc1cn(C(C)=O)c(C)n1 | 2.27% |
| C=CCn1c(Cc2cccs2)nnc1SCC(=O)Nc1ccc(OC)cc1 | -30.5% |
| COCCn1c(C)cc(C2=NNC(=Nc3ccccc3)SC2)c1C | -13.9% |
